Measured values as given in the supplement of paper PMC4604168 (melanoma cell lines).
Some of the results follow. Many values rest on one well or one pass, so single values are uncertain.

What was measured:
Assay in all cases: cell count relative to DMSO control; melanoma cells; higher = more viable cells
Settings in all cases: library dose: low library concentration; 72 h
WM115 = system: WM115
WM1716 = system: WM1716
WM1745 = system: WM1745
WM3526 = system: WM3526
WM3619 = system: WM3619
WM451Lu = system: WM451Lu
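Also: cell number obtained by counting DAPI-stained nuclei in high-throughput microscope images with image analysis software, screen run in 1,536-well plates.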

Row | Structure (SMILES) | cell count (WM115) | cell count (WM1716) | cell count (WM1745) | cell count (WM3526) | cell count (WM3619) | cell count (WM451Lu)
1 | Cn1c(=O)n(-c2ccc(C(C)(C)C#N)cc2)c2c3cc(-c4cnc5ccccc5c4)ccc3ncc21 + NCC(=O)Nc1ccc(-n2nc(C(F)(F)F)cc2-c2ccc3c(ccc4ccccc43)c2)cc1 [OSU03012] (first compound 0.004 µM, partner dose 1 µM) | 88.9% | 74.1% | 89.6% | 56.2% | 106% | 64.9%
2 | Cc1cc(Nc2cc(N3CCN(C)CC3)nc(/C=C/c3ccccc3)n2)n[nH]1 + OCc1c[nH]c2ccccc12 [Indole-3-carbinol] (first compound 0.04 µM, partner dose 0.8 µM) | 96.2% | 102% | 94.9% | 121% | 86.4% | 92.5%
3 | COc1ccc(C2=N[C@@H](c3ccc(Cl)cc3)[C@@H](c3ccc(Cl)cc3)N2C(=O)N2CCNC(=O)C2)c(OC(C)C)c1 [Nutlin-3] + O=C1NC(=O)/C(=C/c2ccc(-c3ccc(F)cc3O)o2)S1 [AS252424] (first compound 0.1 µM, partner dose 1 µM) | 80.6% | 81.9% | 102% | 90.7% | 71.2% | 90.9%
4 | Cc1cn(-c2cc(NC(=O)c3ccc(C)c(Nc4nccc(-c5cccnc5)n4)c3)cc(C(F)(F)F)c2)cn1 [nilotinib] + CC(=O)c1c(C)c2cnc(Nc3ccc(N4CCNCC4)cn3)nc2n(C2CCCC2)c1=O [palbociclib] (first compound 0.2 µM, partner dose 0.04 µM) | 89.7% | 86.9% | 70.9% | 83.5% | 94.1% | 83.9%
5 | CC(C)C[C@H](NC(=O)[C@H](Cc1ccccc1)NC(=O)c1cnccn1)B(O)O [Bortezomib] + CCCS(=O)(=O)Nc1ccc(F)c(C(=O)c2c[nH]c3ncc(Cl)cc23)c1F [PLX4720] (first compound 0.001 µM, partner dose 0.08 µM) | 99.6% | 31.4% | 57.3% | 64.1% | 14.3% | 86.8%
6 | COc1ccc(C2=N[C@@H](c3ccc(Cl)cc3)[C@@H](c3ccc(Cl)cc3)N2C(=O)N2CCNC(=O)C2)c(OC(C)C)c1 [Nutlin-3] + NC(=O)Nc1cc(-c2cccc(F)c2)sc1C(=O)N[C@H]1CCCNC1 [AZD7762] (first compound 0.1 µM, partner dose 0.02 µM) | 82% | 84.1% | 87.5% | 80.2% | 68.7% | 93.7%
7 | COc1ccc(C2=N[C@@H](c3ccc(Cl)cc3)[C@@H](c3ccc(Cl)cc3)N2C(=O)N2CCNC(=O)C2)c(OC(C)C)c1 [Nutlin-3] + CC(C)CCN1c2nc(Nc3cc(F)c(O)c(F)c3)ncc2N(C)C(=O)C1C [BID1870] (first compound 0.1 µM, partner dose 0.2 µM) | 90% | 103% | 97.3% | 103% | 90.1% | 79.5%
8 | Cc1cn(-c2cc(NC(=O)c3ccc(C)c(Nc4nccc(-c5cccnc5)n4)c3)cc(C(F)(F)F)c2)cn1 [nilotinib] + Oc1cc(-c2nc(-c3ccccc3)[nH]c2-c2ccncc2)ccc1Cl [L779450] (first compound 0.2 µM, partner dose 0.2 µM) | 80.9% | 108% | 94.1% | 85.6% | 113% | 107%
9 | COc1ccc(C2=N[C@@H](c3ccc(Cl)cc3)[C@@H](c3ccc(Cl)cc3)N2C(=O)N2CCNC(=O)C2)c(OC(C)C)c1 [Nutlin-3] + O=S(=O)(c1ccccc1)N(CC(F)(F)F)c1ccc(C(O)(C(F)(F)F)C(F)(F)F)cc1 [T0901317] (first compound 0.1 µM, partner dose 1.4 µM) | 101% | 94.5% | 73.8% | 82.2% | 75.9% | 157%
10 | Cn1c(=O)n(-c2ccc(C(C)(C)C#N)cc2)c2c3cc(-c4cnc5ccccc5c4)ccc3ncc21 + C=C(c1ccc(C(=O)O)cc1)c1cc2c(cc1C)C(C)(C)CCC2(C)C [Bexarotene] (first compound 0.004 µM, partner dose 2 µM) | 92.5% | 85.5% | 91.4% | 73.6% | 104% | 84.6%
11 | Cc1cc(Nc2cc(N3CCN(C)CC3)nc(/C=C/c3ccccc3)n2)n[nH]1 + O=C(O)c1ccc(-c2c[nH]c3ncc(-c4ccccc4)cc23)cc1C1CCCC1 [GSK650394] (first compound 0.04 µM, partner dose 0.16 µM) | 91% | 92.8% | 107% | 88.9% | 99.7% | 75.7%
12 | Cc1cc(Nc2cc(N3CCN(C)CC3)nc(/C=C/c3ccccc3)n2)n[nH]1 + C#Cc1cccc(Nc2ncnc3cc(OCCOC)c(OCCOC)cc23)c1 [erlotinib] (first compound 0.04 µM, partner dose 0.8 µM) | 86.4% | 83.4% | 79.9% | 89.3% | 84.9% | 100%
13 | COc1ccc(C2=N[C@@H](c3ccc(Cl)cc3)[C@@H](c3ccc(Cl)cc3)N2C(=O)N2CCNC(=O)C2)c(OC(C)C)c1 [Nutlin-3] + Cn1cncc1[C@@](N)(c1ccc(Cl)cc1)c1ccc2c(c1)c(-c1cccc(Cl)c1)cc(=O)n2C [tipifarnib] (first compound 0.1 µM, partner dose 0.01 µM) | 82% | 71.5% | 98% | 90.7% | 116% | 100%
